Test results from the supplement of paper PMC12067230.
This is a noisy data set.

Experiment: amyloid nucleation score relative to library mode (yeast Sup35 reporter selection) (log enrichment difference); higher = more amyloid nucleation; sequences are the first 22 residues of the Bri2 peptide extended by up to 12 random residues
Details: random library (experiment): 1;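 active = nucleation score significantly above 0 at FDR 0.05; inactive = not significantly above 0 or absent from output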
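Further: [psi-pin-] Saccharomyces cerevisiae expressing SupN fusions, induced by 100 µM Cu2SO4, selected 7 d at 30 °C without adenine and uracil, scored by deep sequencing of output versus input.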

Sequence | amyloid nucleation score
EASNCFAIRHFENKFAVETLICGRCVKLFDVRWR | inactive
EASNCFAIRHFENKFAVETLICGRDTGNEQVAVR | inactive
EASNCFAIRHFENKFAVETLICGRFARSTWIRTS | inactive
EASNCFAIRHFENKFAVETLICGRG | -0.0479
EASNCFAIRHFENKFAVETLICGRGRARKFAVG | -0.338
EASNCFAIRHFENKFAVETLICGRGRLLRSGLER | inactive
EASNCFAIRHFENKFAVETLICGRGTTPLCVTSW | inactive
EASNCFAIRHFENKFAVETLICGRHQTGFVEGRS | -0.372
EASNCFAIRHFENKFAVETLICGRHRRYDFSETT | -0.585
EASNCFAIRHFENKFAVETLICGRIVGGPKVMWM | -0.463
EASNCFAIRHFENKFAVETLICGRKRPPMWEQLK | inactive
EASNCFAIRHFENKFAVETLICGRLDCLCFVLC | inactive
EASNCFAIRHFENKFAVETLICGRLSNGGRRSLV | inactive
EASNCFAIRHFENKFAVETLICGRLTT | 2.86
EASNCFAIRHFENKFAVETLICGRMDIPTTVRSG | inactive
EASNCFAIRHFENKFAVETLICGRMIDPGRLLRV | inactive
EASNCFAIRHFENKFAVETLICGRMLVVVMRYAV | -0.392
EASNCFAIRHFENKFAVETLICGRMSHRWSNYLG | inactive
EASNCFAIRHFENKFAVETLICGRNCAHKDRNHA | 2.55
EASNCFAIRHFENKFAVETLICGRNCFQCNGFLG | 5
EASNCFAIRHFENKFAVETLICGRPMGAGSRMSE | inactive
EASNCFAIRHFENKFAVETLICGRPNSNQRVVYG | inactive
EASNCFAIRHFENKFAVETLICGRQCGG | inactive
EASNCFAIRHFENKFAVETLICGRQGLTCPILND | inactive
EASNCFAIRHFENKFAVETLICGRRARLGGTVFA | inactive
EASNCFAIRHFENKFAVETLICGRRE | inactive
EASNCFAIRHFENKFAVETLICGRRPKGLTDLAC | inactive

Sequence | amyloid nucleation score
EASNCFAIRHFENKFAVETLICGRRVGPKARTQR | inactive
EASNCFAIRHFENKFAVETLICGRTGVNGCSVSG | 0.582
EASNCFAIRHFENKFAVETLICGRTMLH | inactive
EASNCFAIRHFENKFAVETLICGRTRDK | inactive
EASNCFAIRHFENKFAVETLICGRVEAAWLGRRL | 0.00985
EASNCFAIRHFENKFAVETLICGRVFVRSGDMDQ | inactive
EASNCFAIRHFENKFAVETLICGRVGHCVSSE | inactive
EASNCFAIRHFENKFAVETLICGRVKVVYGRRRG | inactive
EASNCFAIRHFENKFAVETLICGRVMSRWREVP | inactive
EASNCFAIRHFENKFAVETLICGRVRTYWSGSFA | 4.17
EASNCFAIRHFENKFAVETLICGRVVQGCGRAGR | inactive
EASNCFAIRHFENKFAVETLICGRWELGVEVYGL | -0.029
EASNCFAIRHFENKFAVETLICGSACLAIMLVPR | inactive
EASNCFAIRHFENKFAVETLICGSAGRPEVCRTE | inactive
EASNCFAIRHFENKFAVETLICGSAMDVVAGKTR | inactive
EASNCFAIRHFENKFAVETLICGSAWIGRWSIGW | inactive
EASNCFAIRHFENKFAVETLICGSCPMILPDPWL | 8.57
EASNCFAIRHFENKFAVETLICGSDDLRQRAGLL | inactive
EASNCFAIRHFENKFAVETLICGSEPVSQGTAAC | inactive
EASNCFAIRHFENKFAVETLICGSESSVLCFWWV | inactive
EASNCFAIRHFENKFAVETLICGSFR | inactive
EASNCFAIRHFENKFAVETLICGSGRWTRNYYRG | 1.39
EASNCFAIRHFENKFAVETLICGSGSMSFRKMCV | inactive
EASNCFAIRHFENKFAVETLICGSGTPDVAASSR | inactive
EASNCFAIRHFENKFAVETLICGSGYRMLGLRRM | inactive
EASNCFAIRHFENKFAVETLICGSKL | inactive
EASNCFAIRHFENKFAVETLICGSKNAGMALRKG | inactive

Same assay, conditions: random library (experiment): 2

Sequence | amyloid nucleation score
EASNCFAIRHFENKFAVETLICGREMPSLSVFTR | -0.0862
EASNCFAIRHFENKFAVETLICGREMSRVGSFRK | inactive
EASNCFAIRHFENKFAVETLICGRGLNFVHGFPV | 2.25
EASNCFAIRHFENKFAVETLICGRKPRADARERR | 2.63
EASNCFAIRHFENKFAVETLICGRKRYH | inactive
EASNCFAIRHFENKFAVETLICGRL | inactive
EASNCFAIRHFENKFAVETLICGRLAVRSVPIGV | 2.82
EASNCFAIRHFENKFAVETLICGRM | inactive
EASNCFAIRHFENKFAVETLICGRMLRRVEYTLL | inactive
EASNCFAIRHFENKFAVETLICGRMNRVSVWSEG | -0.191
EASNCFAIRHFENKFAVETLICGRNWMSVVWKVR | 0.908
EASNCFAIRHFENKFAVETLICGRRRCIYYEYWY | -0.489
EASNCFAIRHFENKFAVETLICGRSSTFVVPKRN | inactive
EASNCFAIRHFENKFAVETLICGRWQYVLVLID | inactive
EASNCFAIRHFENKFAVETLICGSCDDVVHSPTR | inactive
EASNCFAIRHFENKFAVETLICGSEWVQSGRVSR | inactive
EASNCFAIRHFENKFAVETLICGSGHCDTLWGRT | 3.03
EASNCFAIRHFENKFAVETLICGSIYDLIASWGK | 7.51
EASNCFAIRHFENKFAVETLICGSKYRSDWCWGY | 3.01

Same assay, conditions: random library (experiment): 3

Sequence | amyloid nucleation score
EASNCFAIRHFENKFAVETLICGRDEVSL | inactive
EASNCFAIRHFENKFAVETLICGREMAR | inactive
EASNCFAIRHFENKFAVETLICGRFVP | inactive
EASNCFAIRHFENKFAVETLICGRGRGG | inactive
EASNCFAIRHFENKFAVETLICGRHCRLINLLLG | inactive
EASNCFAIRHFENKFAVETLICGRHIGKCDGNSG | inactive
EASNCFAIRHFENKFAVETLICGRHRSLLPSTWG | inactive
EASNCFAIRHFENKFAVETLICGRKAAMLAGLSR | 1.47
EASNCFAIRHFENKFAVETLICGRKLWSRSVPPS | inactive
EASNCFAIRHFENKFAVETLICGRLRLRCKTVPR | inactive
EASNCFAIRHFENKFAVETLICGRLTLMVVCGFL | inactive
EASNCFAIRHFENKFAVETLICGRMCTCMQYAVV | 0.0944
EASNCFAIRHFENKFAVETLICGRNSSVL | inactive
EASNCFAIRHFENKFAVETLICGRRDGARLACRV | inactive
EASNCFAIRHFENKFAVETLICGRRGMAAEGEVS | inactive
EASNCFAIRHFENKFAVETLICGRRMKSGCDFVR | inactive
EASNCFAIRHFENKFAVETLICGRRSPVEDRPVG | inactive
EASNCFAIRHFENKFAVETLICGRRVQLPSWGVG | inactive
EASNCFAIRHFENKFAVETLICGRRWAGSNRPRW | 1.25
EASNCFAIRHFENKFAVETLICGRSCAYPRRCGV | 2.83
EASNCFAIRHFENKFAVETLICGRSEWVMIRSRG | inactive
EASNCFAIRHFENKFAVETLICGRSFHRGWAECR | inactive
EASNCFAIRHFENKFAVETLICGRSKN | inactive

Sequence | amyloid nucleation score
EASNCFAIRHFENKFAVETLICGRSRGDETSMMV | inactive
EASNCFAIRHFENKFAVETLICGRSSSLMTTRCM | inactive
EASNCFAIRHFENKFAVETLICGRTNAPDVRHGR | inactive
EASNCFAIRHFENKFAVETLICGRTSVVRTGLMA | inactive
EASNCFAIRHFENKFAVETLICGRTWVPH | 3
EASNCFAIRHFENKFAVETLICGRWIGGDVQTVV | inactive
EASNCFAIRHFENKFAVETLICGRWLLLGREDGT | inactive
EASNCFAIRHFENKFAVETLICGRWMRYRRDGDA | 4.57
EASNCFAIRHFENKFAVETLICGRWQTFGERNPA | inactive
EASNCFAIRHFENKFAVETLICGRWVYKPCLVEY | inactive
EASNCFAIRHFENKFAVETLICGRYSAGKLRYWA | inactive
EASNCFAIRHFENKFAVETLICGSAAKPGVDVLD | inactive
EASNCFAIRHFENKFAVETLICGSARYHDIAAGA | inactive
EASNCFAIRHFENKFAVETLICGSCLLTREWARW | 7.4
EASNCFAIRHFENKFAVETLICGSDKYGRRLCGW | -0.444
EASNCFAIRHFENKFAVETLICGSEAGR | inactive
EASNCFAIRHFENKFAVETLICGSEEASAQGSVY | inactive
EASNCFAIRHFENKFAVETLICGSEIRRNSRVIG | inactive
EASNCFAIRHFENKFAVETLICGSGAERTGMKAV | -0.0526
EASNCFAIRHFENKFAVETLICGSGDEKKVPTQG | -0.281
EASNCFAIRHFENKFAVETLICGSGEYLWSILSR | 0.104
EASNCFAIRHFENKFAVETLICGSHSSGRLGQPR | 3.44
